Laboratory results from the supplement of paper PMC3724861.
Some of the results follow.

What follows are sequences tested on T1, Caupolican (Caup) homeodomain DNA-binding domain (assay: PBM E-score (8-mer, recovered from the published 9-mer minima) (E-score (dimensionless, -0.5 to 0.5)); Drosophila protein; higher = stronger relative binding preference, active = 0.31 or more).
T1 sequence: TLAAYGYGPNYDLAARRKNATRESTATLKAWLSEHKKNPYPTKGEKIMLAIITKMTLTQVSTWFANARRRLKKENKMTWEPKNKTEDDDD
How it was run: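 Caup's homeodomain DNA-binding domain (residues 214-303) was made by in vitro transcription and translation and applied at 100 nM to custom-designed protein binding microarrays. Each value is an enrichment score that gives relative binding preference for a short DNA word, with higher meaning stronger. The 8-mer values were recovered from published 9-mer scores, each of which was the minimum of its two constituent 8-mer scores. A cutoff of 0.31 marks candidate sites.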

PBM E-score, ≥ -0.175:
AGGGGCCA

PBM E-score, ≥ 0.276:
CAAATAAC

PBM E-score, ≥ 0.0697:
ACAGCCAT

PBM E-score, ≥ 0.113:
AAAACGTC
CTGGTTCA

PBM E-score, ≥ 0.0502:
AGGCAACT

PBM E-score, active:
AATACATA 0.362
ACAACACA ≥ 0.395
CTGTACAA 0.335
TACACGGA 0.375
TATGTACA 0.427
GTGTTACA 0.381

PBM E-score, ≥ 0.158:
AATAAGTA

PBM E-score, ≥ 0.134:
AGTTCGAT

PBM E-score, ≥ 0.0902:
TGGCATAA

PBM E-score, ≥ 0.00548:
AGAAGTCT

PBM E-score, inactive:
AGAGCGAA -0.0335
GCTCATGA -0.00161
GAGGGGTA -0.164
AGTGCCAA 0.00364
GGATGGCC -0.189
CTGAGACC -0.161
ACTGGCAC -0.125
GATCTCAA -0.0485
AGCGAGTA 0.00306
ATACGCCG -0.111
ATACCTAA 0.136
TATAAATA 0.183
GGGTTTAC -0.0433
AACGGGCG -0.183
GGTTACAA 0.303
AACCTGCA 0.0156
AAAGCACA 0.076
GGATAAAC 0.113
AAACTAGC -0.0478
GAGAATAA 0.052
CGCAGGTC -0.118
CCCCGTGA -0.201
AAGAAATC -0.0447
AAGAAAGC -0.122
AATGGGGG -0.235
AGAATGGC -0.0659
ACGGTAAG -0.0685
GCGGGTAC 0.0197
CAACCGAA -0.0219
AACGAAAT 0.0142
AAGGGACC -0.146
TATCCTCA -0.0752
GCTAGTAC 0.0881
CCAGGAAG -0.1
CCTCATAG -0.113
AACTGTAT 0.138
ACTAGCCC -0.114
AGAGGCAG -0.152
AGGGAGTG -0.199
AGCACGTG 0.082
AATAGTGA 0.0846
TCATCGCA 0.065
CAGAGTAA 0.00794
GTTCCTTA -0.01
ACGGGAAG -0.0385
CAGAGATA 0.084
CTGGCTCC -0.218
AGAGCCTC -0.17
CGGCTACC -0.112
AATGCGTC -0.135
TGACGAAA 0.0132
GATCGCGA -0.0152
TAACGCGA -0.0146
GCGCTCTA -0.198
CCGGTAAG -0.0973
ATGGGGAG -0.0709
GGTTTCGA -0.0911
AAAAAGCC -0.128
AGATTGTA 0.179
TATCTAAA 0.126
AAGCGACG -0.114
AACTCAAA 0.132
ATCTGTAG 0.0582
GCCACAGC -0.0857
GCAGTACC 0.0779
CAGGGCAC -0.0544
CGATGGCC -0.186
CTCGACTA 0.0559
AGTAATAG 0.199
TCAGATGA 0.0776
GTAGGTGA -0.00379
CGTAAGCC -0.0966
GTGAGCTA 0.0223
CCCACTAG -0.195
GATAGTAA 0.126
GTCAAAAC 0.0458
AGGCCCGC -0.259
AAAGCCAC -0.14
CACATCGC 0.0231
TGGCCTAA -0.0617
AACCGTCT -0.0458
ATCATCCA 0.0505
CATGAGAC 0.109
CTCTGAAG -0.17
CAAGACCG 0.0146
ACTGCCTC -0.0898
GGCGCATA -0.102
ATATAAAG 0.0656
TGCATCAA 0.0554
AAAAATTG -0.0297
AAAGGACG -0.0381
CTGGAGAC -0.143
TGACTGCA 0.0634
GGGGCGAC -0.158
TCCTGCAA -0.0379
CGTACGCA -0.0196
CGACATAG 0.232
CGTTCTTA 0.0267
CAATGCCA -0.011
ACATCGCC 0.136
AACCATTC -0.0222
AATCAACT 0.132
TAGAAGAA 0.02
CCGAAGTA 0.0559
AGTTTTAT 0.0486
CGCCATAC 0.00396
CAATACAC 0.271
ACCCGAGA -0.114
CGGTGAGA -0.0868
AGACCCGG -0.15
ACTGTGCT 0.0218
CCTACAAA -0.0102
GCACCACC -0.107
ATGTCCCG 0.134
GGGCCTAC -0.155
CACTGGCG -0.0957
CGTCAGAG -0.0167
GCCGTAGC -0.178
AGGCGATA -0.0366
AAACGCTA 0.00553
GACGACAA 0.269
CGGGCTCA -0.153
AAGCATCC -0.0283
TCACGGAA 0.0468
AGCCGCCA -0.213
CTATTAAG -0.0767
CTGACAGA 0.0877
CGGAGACC -0.21
CAATGCAA 0.0824
GTACCTTA 0.0736
GCCTAACA 0.0242
ATTGGAAA 0.0219
AGTAAAAT 0.0149
TATCAATA 0.161
AACCACAC 0.0803
AACGCTGC -0.0702
ATGATACC 0.116
GTGCTCCA -0.0875
ACAAAAGC 0.109
CAAATGTG 0.178
AAGTGAAC 0.0866
AGGGAGAT -0.151
AAGTGTCA 0.0964
GCACACAA 0.0665
GCCACTAA -0.0954
ACTCGGCA -0.0666
GCTCGTAA 0.0735
TCCGGACA 0.0752
TACCTATA 0.121
AATCCAAG 0.048
AAGTAAAA -0.0311
AAAACCTA 0.11
CGCCGCCA -0.218
CCGTACCC -0.149
ACCTCTAT -0.0159
AAGCCGAA -0.0193
GTTTAATA 0.23
AGTTAGGG -0.126
CCCGTTCC -0.113
AAACTTAA 0.0504
GAGTCCCA -0.0935
ATTACGAC 0.147
ACACAAGA 0.229
CCATTAGA -0.131
ATCTAATG 0.118
CACAAACA 0.24
CTACATTA 0.199
AGAACACC 0.194
ATGTTAGG 0.219
GAGATTCC -0.0852
AATCTTCC -0.0859
CCGGACGA -0.0748
CCTTCAGA -0.0253
CACACGCG 0.0165
ACGCAAGG -0.0367
CTACCTCA -0.0438
AGCGCTAG -0.0817
CATGTCCG 0.303
CTCGAATC -0.021
CCCGGGCA -0.225
AGACCGGG -0.179
TACCGGCA 0.0136
CAGTAGGA -0.074
AAATCCTT 0.0194
AGGGTTGA -0.0373
CACCGGTC -0.179
ACCGACTG -0.108
AACAAAAC 0.179
ATAACAGA 0.171
GCCGTGGA -0.204
CATTTATA 0.123
AGAACAAC 0.229
CGACACTA 0.116
AGGGGACG -0.114
CATACCCA 0.0853
AAGCCCTT -0.163
GCGCCCTA -0.273
AGATTTGA 0.0967
AGTCCAAC -0.0836
GGGGTTCA -0.151
AGTCTTGC 0.0593
ATCTTTCA 0.05
GCCCAGAC -0.131
ATAGTGAT 0.108
CCTGAAAA -0.0612
CCGGTCGC -0.246
AAAAAGTG 0.0416
ACAAGCAC 0.246

PBM E-score, ≥ -0.0145:
TACGGAGA
